# Source: PubChem BioAssay (NCATS)
# Several values for one entry are separate records, joined by “and”; a condition that tells them apart may be missing. Equal entries are not always repeated. The inconclusive results got no clear call from the source; some entries with a clear call stand among them for comparison. For some of these results: A potency beside an inconclusive call is a rough fit, not a confirmed value. Activity calls are given as the source filed them. Unless noted, calls come from the whole dose curve; as a rule, active = well fitted curve in the direction sought with a large enough effect; inconclusive = small, poorly fitted or top-dose-only effect, or another doubt; inactive = no such curve, though single readings can be large; an effect the other way counts as inactive or inconclusive.
# Assays:
# [1] = Primary qHTS for small molecule stabilizers of the endoplasmic reticulum resident proteome: Secreted ER Calcium Modulated Protein (SERCaMP) assay (AID 1508630); settings: SH-SY5Y GLuc-SERCaMP (Gaussia luciferase released on ER calcium loss) secretion, thapsigargin, luminescence; series mostly up to 38.4 µM; note: potency is the fitted concentration of half-maximal effect
# Procedure, shortened: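 The SH-SY5Y reporter protocol was run at 3 concentrations up to 38.3 uM (primary) or 11 concentrations (follow-up): 16 h compound, 100 nM thapsigargin for 4 h, then extracellular luciferase luminescence.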
# [2] = target: Cytochrome P450 2D6 (Homo sapiens) (UniProt P10635); assay: Cytochrome P450 family 2 subfamily D member 6 (CYP2D6) small molecule antagonists: luciferase biochemical (cell-free) qHTS assay (AID 1645840; active = well fitted curve in the direction sought with a large enough effect in the repeat runs; inconclusive = weak or mixed curves; inactive = no such curve, though single readings can be large; an effect the other way counts as inactive or inconclusive; note: nearly all actives have a fitted effect of over 55% in size; note: potency is the fitted concentration of half-maximal effect)
# UniProt P10635, sequence (P10635 whole entry, looked up): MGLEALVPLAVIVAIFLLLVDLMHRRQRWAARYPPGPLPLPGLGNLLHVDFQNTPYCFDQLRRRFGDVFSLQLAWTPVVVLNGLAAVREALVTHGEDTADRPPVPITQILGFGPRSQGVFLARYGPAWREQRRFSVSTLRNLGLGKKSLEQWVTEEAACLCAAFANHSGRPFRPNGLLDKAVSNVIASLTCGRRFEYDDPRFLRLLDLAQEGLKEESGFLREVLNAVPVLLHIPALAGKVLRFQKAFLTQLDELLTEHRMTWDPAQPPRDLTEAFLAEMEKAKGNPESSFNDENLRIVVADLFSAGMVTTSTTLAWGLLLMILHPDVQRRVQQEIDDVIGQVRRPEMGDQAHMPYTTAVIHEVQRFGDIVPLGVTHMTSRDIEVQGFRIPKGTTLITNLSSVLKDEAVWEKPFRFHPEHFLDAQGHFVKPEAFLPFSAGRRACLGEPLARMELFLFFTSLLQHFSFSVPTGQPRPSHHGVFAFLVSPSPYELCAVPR
# Procedure, shortened: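 P450-Glo CYP2D6 system: proluciferin substrate converted by enzyme to luciferin, read by luminescence proportional to activity. Enzyme-substrate mix with compound 10 min at room temperature, then NADPH regeneration 1 h before detection reagent.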
# [3] = target: Cytochrome P450 2C9 (Homo sapiens) (UniProt P11712); assay: Cytochrome P450 family 2 subfamily C member 9 (CYP2C9) small molecule antagonists: luciferase biochemical (cell-free) qHTS assay (AID 1645842; active = well fitted curve in the direction sought with a large enough effect in the repeat runs; inconclusive = weak or mixed curves; inactive = no such curve, though single readings can be large; an effect the other way counts as inactive or inconclusive; note: nearly all actives have a fitted effect of over 55% in size; note: potency is the fitted concentration of half-maximal effect)
# UniProt P11712, sequence (P11712 whole entry, looked up): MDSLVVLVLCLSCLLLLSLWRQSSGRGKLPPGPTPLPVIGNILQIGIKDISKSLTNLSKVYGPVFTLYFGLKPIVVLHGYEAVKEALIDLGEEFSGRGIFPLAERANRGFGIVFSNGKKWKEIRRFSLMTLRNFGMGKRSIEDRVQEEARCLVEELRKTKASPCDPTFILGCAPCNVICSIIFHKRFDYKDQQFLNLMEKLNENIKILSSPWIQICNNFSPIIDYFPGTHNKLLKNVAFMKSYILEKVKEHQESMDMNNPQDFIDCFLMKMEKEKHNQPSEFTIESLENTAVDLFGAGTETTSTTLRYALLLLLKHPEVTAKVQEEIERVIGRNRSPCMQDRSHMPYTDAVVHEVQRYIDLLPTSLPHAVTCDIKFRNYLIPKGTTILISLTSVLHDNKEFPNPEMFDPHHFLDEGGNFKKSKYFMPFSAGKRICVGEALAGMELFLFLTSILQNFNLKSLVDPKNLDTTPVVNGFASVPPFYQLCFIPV
# Procedure, shortened: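 P450-Glo CYP2C9 system: proluciferin substrate with enzyme in mix containing 0.4% BSA, 10 min at room temperature, then NADPH regeneration solution added and incubated 1 h at 37C. Detection reagent stopped reaction; luminescence read after 20 min as RLU.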
# [4] = target: Cytochrome P450 3A4 (Homo sapiens) (UniProt P08684); assay: Cytochrome P450 family 3 subfamily A member 4 (CYP3A4) small molecule antagonists: luciferase qHTS assay (AID 1645841; active = well fitted curve in the direction sought with a large enough effect in the repeat runs; inconclusive = weak or mixed curves; inactive = no such curve, though single readings can be large; an effect the other way counts as inactive or inconclusive; note: nearly all actives have a fitted effect of over 45% in size; note: potency is the fitted concentration of half-maximal effect)
# UniProt P08684, sequence (P08684 whole entry, looked up): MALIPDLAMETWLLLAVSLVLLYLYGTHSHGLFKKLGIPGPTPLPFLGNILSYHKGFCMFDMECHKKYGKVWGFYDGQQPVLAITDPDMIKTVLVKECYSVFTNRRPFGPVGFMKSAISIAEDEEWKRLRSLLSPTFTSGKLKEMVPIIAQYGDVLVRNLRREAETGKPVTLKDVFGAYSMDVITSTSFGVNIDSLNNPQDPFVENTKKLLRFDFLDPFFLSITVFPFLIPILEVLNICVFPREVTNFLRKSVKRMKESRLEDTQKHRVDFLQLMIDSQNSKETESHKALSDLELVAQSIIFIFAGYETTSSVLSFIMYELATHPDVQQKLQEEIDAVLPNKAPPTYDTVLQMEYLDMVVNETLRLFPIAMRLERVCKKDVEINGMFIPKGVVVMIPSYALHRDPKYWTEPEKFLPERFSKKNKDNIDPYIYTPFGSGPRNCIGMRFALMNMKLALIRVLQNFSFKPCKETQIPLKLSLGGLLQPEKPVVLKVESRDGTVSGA
# Procedure, shortened: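 P450-Glo CYP3A4 enzyme with proluciferin substrate preincubated 10 min with compound at room temperature, then NADPH regeneration 1 h. Luciferin detection reagent added for 20 min; luminescence recorded. Ketoconazole positive control.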
# [5] = A High-Content qHTS Against Drug Library for the Identification of Small Molecules that Inhibit DYT1 Early Onset Primary Dystonia-Associated Cell Pathology (AID 1645839; calls by dose curve)
# Procedure, shortened: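 Cells were seeded and left for 24 h, then dosed with compound alongside tetracycline induction of mutant EGFP-TorsinA. They were incubated for 48 h, fixed in 4% paraformaldehyde, permeabilized and imaged for mislocalization (%pathology) and cell count.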
# Papain (Carica papaya) = Papain (Carica papaya) (UniProt P00784); assay: Primary qHTS assay for inhibitors of the protease papain (AID 1645873);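 note: papain turnover of Z-FR-AMC read as the AMC fluorescence gain over 10 min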
# UniProt P00784, sequence (P00784 whole entry, looked up): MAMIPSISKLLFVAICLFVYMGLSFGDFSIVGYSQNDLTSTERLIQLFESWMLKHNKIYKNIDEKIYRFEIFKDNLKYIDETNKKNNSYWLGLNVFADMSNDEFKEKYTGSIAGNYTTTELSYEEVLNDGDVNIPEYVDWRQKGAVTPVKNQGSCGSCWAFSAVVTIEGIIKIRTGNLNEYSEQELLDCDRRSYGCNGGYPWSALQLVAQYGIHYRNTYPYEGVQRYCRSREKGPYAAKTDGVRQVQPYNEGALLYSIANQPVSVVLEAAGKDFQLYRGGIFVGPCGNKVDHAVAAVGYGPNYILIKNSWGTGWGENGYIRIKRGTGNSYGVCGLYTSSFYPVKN
# Tags give direction and shape of the fitted curve.
structure (smiles),measurement,setting,value
Clc1ccccc1CN1CCc2sccc2C1,Potency,[1],"inconclusive: 10 µM [inhibitor, partial curve, poor fit]"
COc1nc(N)nc2c1ncn2[C@@H]1O[C@H](CO)[C@@H](O)[C@@H]1O,Potency,[1],"inactive and inconclusive: 23.7 µM [inhibitor, partial curve, poor fit]"
same,Potency,[2],inactive
CCCCC(F)(F)[C@@]1(O)CC[C@H]2[C@H](CC(=O)[C@@H]2CCCCCCC(=O)O)O1,Potency,[1],"inconclusive: 1.19 µM [inhibitor, full curve, poor fit]"
CCc1cncnc1N1CCN(Cc2nc3ccc(C(F)(F)F)cc3[nH]2)CC1,Potency,[1],inactive
same,Potency,[2],active: 0.107 µM
OC[C@H]1O[C@@H](OCCc2ccc(O)cc2)[C@H](O)[C@@H](O)[C@H]1O,Potency,[1],"inconclusive: 1.88 µM [inhibitor, partial curve]"
same,Potency,[3],inactive
Nc1ccc(S(=O)(=O)Nc2ncccn2)cc1,Potency,[1],inactive
same,Potency,[4],inactive
O=C(NOC[C@H](O)CO)c1ccc(F)c(F)c1Nc1ccc(I)cc1F,Potency,[1],inactive
same,Potency,[2],"inconclusive: 19 µM [inhibitor, partial curve, poor fit]"
O=C(CC12CC3CC(CC(C3)C1)C2)Nc1cccc2nc(NCCNCCO)ccc12,Potency,[2],"inconclusive: 19 µM [inhibitor, partial curve, poor fit]"
OC[C@H](Cc1ccccc1)Nc1nc(Oc2ccc3c(c2)CCC3)nc2c1ncn2Cc1ccc(-c2ccccc2)cc1,Potency,[1],inactive
same,Potency,[4],"inconclusive: 2.39 µM [falling, full curve]"
same,Potency,[3],"inconclusive: 2.39 µM [inhibitor, full curve, poor fit]"
COC(=O)N[C@H](C(=O)N[C@@H](Cc1ccccc1)[C@@H](O)CN(Cc1ccc(-c2ccccn2)cc1)NC(=O)[C@@H](NC(=O)OC)C(C)(C)C)C(C)(C)C,Potency,[1],"inconclusive: 11.2 µM [inhibitor, single point]"
same,Potency,[2],"inconclusive: 43.6 µM [inhibitor, partial curve, poor fit]"
same,Potency,[3],"inconclusive: 11 µM [inhibitor, partial curve]"
CC(=O)NCCC(=O)N[C@@H](CCC(N)=O)C(=O)N[C@@H](CO)C(=O)N[C@@H](CCC(N)=O)C(=O)N[C@@H](CCC(N)=O)C(=O)N[C@H](C(=O)N[C@@H](Cc1ccccc1)C(=O)N[C@]1(C)CCCCCCC=CCCC[C@@](C)(C(=O)N[C@@H](CCC(N)=O)C(=O)N[C@@H](CC(N)=O)C(N)=O)NC(=O)[C@H](CC(C)C)NC(=O)[C@H](CC(C)C)NC(=O)[C@@H](CCCNC(=N)N)NC(=O)[C@H](Cc2c[nH]c3ccccc23)NC(=O)[C@H](CC(C)C)NC(=O)[C@H](CC(N)=O)NC1=O)[C@H](C)O,Potency,[1],inactive
CN(C)c1nc(Cc2ccc(NC(=O)c3ccc4ccccc4c3)cc2)nc(Cl)c1CC(=O)O,Potency,[1],"inconclusive: 0.0668 µM [inhibitor, full curve, poor fit]"
same,Potency,[3],"inconclusive: 12 µM [inhibitor, partial curve]"
CC(C)(N)C(=O)N[C@H](COCc1ccccc1)C(=O)N1CCC2(CC1)CN(S(C)(=O)=O)c1ccccc12,Potency,[1],inactive
same,Potency,[2],"inconclusive: 23.9 µM [inhibitor, single point]"
CN1CCN2c3ccccc3Cc3ccccc3C2C1 (stereo not drawn),Potency,[1],"inconclusive: 20 µM [inhibitor, single point] and inconclusive: 31.6 µM [inhibitor, single point]"
same,Potency,[5],inactive
same,Potency,Papain (Carica papaya),inactive
c1cncc(CN2CCC(n3ncc4c(N5CCOCC5)nc(-c5ccc6[nH]ccc6c5)nc43)CC2)c1,Potency,[2],"inconclusive: 9.52 µM [inhibitor, partial curve, poor fit]"
